Data as given in PubChem BioAssay AID759 (NMMLSC, 2007).
Hit rate of the full screen: of about 190,000 compounds, about 270 (0.14%) were called active. The inconclusive results got no clear call from the source; some entries with a clear call stand among them for comparison.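 How the source made its calls: active means GTP binding activity at least 20% away from the 100% baseline, either lowered as inhibitor or raised as activator; inconclusive means flagged as likely green fluorescent, judged across all proteins in the well; inactive means the rest.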

What follows are compounds tested against GTPase HRas (Homo sapiens) (UniProt P01112) (assay: HRas wt fluorescent GTP binding changes, either direction – biochemical, wildtype, bead-based flow cytometry, multiplex, primary screen (AID 759;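 further: 0% = unlabeled GTP competition control and 100% = no-compound control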)). Settings: GST-Ras wt beads, Bodipy-FL-GTP binding, at 10 µM, actives lie on both sides.
UniProt P01112, sequence (P01112 whole entry, looked up): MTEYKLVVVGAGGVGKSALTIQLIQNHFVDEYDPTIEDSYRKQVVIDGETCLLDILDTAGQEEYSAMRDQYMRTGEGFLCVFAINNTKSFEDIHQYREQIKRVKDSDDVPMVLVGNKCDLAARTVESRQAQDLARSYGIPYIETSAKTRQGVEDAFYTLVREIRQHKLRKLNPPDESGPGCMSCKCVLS

GTP binding activity, inconclusive:
COCCNC(=O)NC(=O)COC(=O)C1(c2ccc(Cl)cc2)CC1 93%
Cc1ccc(-c2ccc(/C=C3/NC(=O)NC3=O)o2)cc1[N+](=O)[O-] 89%
CCCSc1nnc(CN2CCOCC2)n1C 105%
COc1cccc(C2=CC(c3ccccc3)n3ncnc3N2)c1 (centres undefined) 105%
CC1CCCCC1NC(=O)/C=C/c1nc2ccccc2s1 (centres undefined) 89%
O=C(CC1Nc2ccccc2NC1=O)c1ccccc1 (centres undefined) 112%
CC(C)Cc1nn2c(=O)cc(O)nc2s1 103%
CC1CC(=O)N(Cc2ccccc2)c2ccccc2N1C=O (centres undefined) 107%
OC1(C#CCCN2CCCCC2)c2ccccc2-c2ccccc21 97%
Cc1onc(-c2c(Cl)cccc2Cl)c1C(N)=O 105%
CC1(C)Cc2c(sc3nc(-c4cc5ccccc5o4)n(N)c(=O)c23)CO1 93%
O=C(CSCc1c(F)cccc1Cl)NCCSCc1ccco1 95%
CCCN1C(=O)/C(=C/C=C2\N(CC)c3ccccc3C2(C)C)SC1=S 135%
COc1ccc(O)c(-c2cc(-c3cccc(Br)c3)n[nH]2)c1 107%
Cc1cc(Oc2ccc(=O)n(C)n2)nc(=S)[nH]1 93%
COc1cc(OC)c(-c2c3cc(O)c(=O)cc-3oc3cc(O)c(O)cc23)cc1OC 212%
Clc1ccc(SCCOCCN2CCCCC2)cc1 105%
COCc1cc(Sc2ccc(Cl)cc2)nc(-c2ccccc2)n1 95%
O=C(O)C1CC(=O)N(c2ccc(OCc3ccc(Cl)cc3Cl)cc2)C1 (centres undefined) 90%
O=C(c1ccccc1)c1nnc(-c2ccncc2)o1 108%
N=c1c2c(-c3ccccc3)c(-c3ccccc3)n(Cc3ccco3)c2ncn1Cc1ccco1 106%
O=C(CNC(=O)c1cccs1)NCC(=O)OCc1ccc(Cl)cc1Cl 103%
O=C(Nc1nc2ccccc2[nH]1)c1cc2ccccc2o1 93%
COc1cc(C)c(CNc2cccc(C)c2)cc1C 102%
CCOC(=O)c1cnc(SCC(=O)OC)nc1N 103%
O=C(N/N=C/c1ccc[nH]1)c1ccccc1OCc1ccccc1Cl 86%
Cc1ccc(Nc2nnc(SC/C(O)=C(\C#N)c3nc4ccccc4[nH]3)s2)c(C)c1 95%
COc1cccc(-c2nc(CS(=O)CC(=O)NCCCOC(C)C)c(C)o2)c1 (centres undefined) 102%
COc1ccc(Cc2nnc(N/N=C/c3ccc(O)cc3O)[nH]c2=O)cc1OC 88%
Cc1cc(NCCc2ccccc2F)n2ncnc2n1 97%
Cc1ccc2nc(SCc3ccc([N+](=O)[O-])cc3)[nH]c2c1 97%
O=C(CCNS(=O)(=O)c1ccc(Cl)cc1)NCc1ccccn1 104%
Cc1ccc(CN2CC(C(=O)Nc3ccc4c(C)cc(=O)oc4c3)CC2=O)cc1 (centres undefined) 94%
O=C(NCCOc1ccc(Cl)cc1)C1CC(=O)N(c2ccc(F)cc2)C1 (centres undefined) 107%
CCC(C)C(=O)Nc1ccc(OC)cc1OC (centres undefined) 153%
COc1cccc(CN(C)CC(=O)Nc2sc3c(c2C#N)CCC3)c1OC 92%
CCCC(=O)N1CCN(c2ccc(NC(=S)NC(=O)c3cccc(C)c3)cc2)CC1 97%
O=C(NCCN1CCN(C(=O)c2cc3ccccc3oc2=O)CC1)c1cc2ccccc2oc1=O 107%
Cn1c(-c2ccc(F)cc2)cnc1NCc1ccc(F)cc1 109%
CCn1c(SCC(=O)NC2CCCc3ccccc32)nnc1-c1cccs1 (centres undefined) 105%
Fc1ccc(COc2ccc(/C=N/n3cnnc3)cc2)cc1 104%
Cc1nn(C)c2nc(-c3cccs3)cc(C(F)(F)F)c12 95%
COc1ccc2cc3cc(C(=O)NCCc4ccc(OC)c(OC)c4)oc3nc2c1 94%
COc1ccc(S(=O)(=O)CC(O)CN2CCCC2=O)cc1 (centres undefined) 107%
COc1ccc(N2CCN(CC(=O)Nc3cccc(S(=O)(=O)N4CCOCC4)c3)CC2)cc1 97%
COc1ccc(N2C(=O)CCC(C(=O)N3CCN(c4ccccn4)CC3)C2c2ccc(F)cc2)cc1 (centres undefined) 96%
O=C(NCCCO)Nc1ccc2nc(-c3ccco3)c(-c3ccco3)nc2c1 85%
O=C(NN1C(=O)C2C(C1=O)C1C=CC2C12CC2)c1ccncc1 (centres undefined) 93%
COc1ccc2[nH]c3nc(SCC(=O)NNC(=O)c4ccc(OC)c(OC)c4)nnc3c2c1 85%
CCSc1nnc(NC(=O)C2Cc3ccccc3CN2C(=O)c2ccco2)s1 (centres undefined) 94%
Cc1ccc(C(=O)/C=C/c2ccc(-c3ccccc3[N+](=O)[O-])o2)cc1 92%
Cc1cc(C)c2sc(N(CCN(C)C)C(=O)c3cc(Cl)sc3Cl)nc2c1 137%
NC(CSCc1ccccc1Cl)C(=O)O (centres undefined) 90%
Cc1nc2c(ccc3nc(NC(=O)c4ccc(S(=O)(=O)N(C)C)cc4)sc32)s1 72%
O=[N+]([O-])c1cc(S(=O)(=O)N2CCCC2)ccc1N/N=C1/CCCc2ccccc21 106%
Cc1ccc(-c2cc(-c3nnc(SCC(=O)NCC(C)C)n3N)c3ccccc3n2)cc1 103%
CCOC(=O)N1CCN(c2c(-c3ccc(C(C)C)cc3)c(=O)c2=O)CC1 105%
COc1cc(/C=N/NC(=O)c2cc(-c3c(C)nn(-c4ccccc4)c3C)n[nH]2)ccc1O 91%
COc1cc(C(=O)Nc2ccc3c(c2)OCCO3)ccc1-n1cnnn1 102%
C=CCn1c(N)c(C(=O)Nc2ccc(C)c(C)c2)c2nc3ccccc3nc21 81%
Fc1cccc(NC(=S)NCCCN2CCOCC2)c1 104%

GTP binding activity, inactive:
COC(=O)C1CC(c2ccc(Cl)cc2)=NO1 (centres undefined) 99%
S=C(NCc1ccc2c(c1)OCO2)NC1CC1 101%
CC1CCN(C(C(=O)O)c2ccccc2)CC1 (centres undefined) 97%
O=[N+]([O-])c1ccc2ccn(C3OCC(O)C(O)C3O)c2c1 (centres undefined) 100%
O=C(NC1=NCCS1)c1ccccc1OCc1ccccc1Cl 97%
COc1ccc(/C=C/C(=O)N2CCN(C)CC2)cc1S(=O)(=O)N1CCCCC1 99%
COc1ccc(NC(=O)CC2C(=O)N(c3cccc(OC)c3)C(=O)N2C(C)C)cc1 (centres undefined) 97%
Cc1ccc(NC(=S)N(CCN(C)C)Cc2cccs2)cc1C 93%
CC(C)(C)Cc1nnc(NC(=O)Cc2cccs2)s1 95%
N#CC1(C#N)CC(C=O)=C(N)C1(C#N)CC(=O)C12CC3CC(CC(C3)C1)C2 (centres undefined) 91%
COC(=O)c1ccccc1NC1CC(=O)N(c2c(C)cccc2C)C1=O (centres undefined) 98%
NC(=O)Cn1c(=O)n(CCC(=O)NCCSCc2ccccc2)c(=O)c2ccccc21 101%
O=C(c1ccc2ncsc2c1)N1CCN(c2ccc(O)cc2)CC1 106%
COc1ccc(OCCN2C(=O)c3ccccc3C2=O)cc1 93%
O=C(Nc1ncc(Cc2cccc(C(F)(F)F)c2)s1)c1ccc(-c2cccc([N+](=O)[O-])c2)o1 91%
CCC1CCCCN1C(=S)Nc1cccc(S(=O)(=O)N(C)C)c1 (centres undefined) 99%
CC1=NC(=O)C(N=Nc2ccccc2C(=O)O)N1c1ccccc1 (centres undefined) 84%
COc1ccc(-n2cc(-c3ccc(C)cc3)[n+]3c2SCC3)cc1 101%
CC(C)N=C(NS(=O)(=O)c1ccccc1)C(Cl)(Cl)Cl 102%
O=C(CN1C(=O)C(=O)N(C2CCCC2)C1=O)Nc1ccc(N2CCOCC2)cc1 95%
c1ccc2c3c([nH]c2c1)C(C1CCCCC1)N(Cc1ncc[nH]1)CC3 (centres undefined) 95%
CN(CC(=O)Nc1ccccc1Cl)CC(=O)Nc1ccccc1[N+](=O)[O-] 94%
O=C1COc2ccc(C(=O)COC(=O)CNC(=O)c3ccco3)cc2N1 97%
CC1(C)CC(=O)/C(=C(/O)CCCN2C(=O)c3ccccc3C2=O)C(=NC(C)(C)C)C1 102%
COCc1cc(C)nc(OC)c1C(N)=O 97%
C=CC[n+]1ccc(/C=C2\C=Cc3cc(C)ccc3N2CC)c2ccccc21 105%
N#CC(c1ccc(Cl)nn1)c1ccc(Cl)cc1Cl (centres undefined) 108%
CCNC(=O)NC(=O)COC(=O)CCCc1nc2ccccc2s1 98%
Cc1ccc(C(=O)CC(=O)c2cccc(F)c2)c(O)c1 98%
O=C(NC(NCc1cccnc1)C(Cl)(Cl)Cl)c1cccc2ccccc12 (centres undefined) 99%
O=C(CSc1ccc2nnc(-c3ccc(F)cc3)n2n1)N1CCCc2ccccc21 91%

GTP binding activity, active:
Oc1ccc(C2=Nn3c(nnc3-c3ccco3)SC2)cc1O 47%
COC(=O)c1ccc(/C=N/Nc2nc(-c3ccc(Cl)cc3Cl)cs2)cc1 121% [activator]
